Laboratory results as given in publication PMC6919601, “Identification of Plasmodium dipeptidyl aminopeptidase allosteric inhibitors by high throughput screening” (PLoS ONE, 2019).
Out of some 110,000 compounds screened, about 230 (0.21%) showed an effect of 50% or more. The list shows a part of the results.

These molecules were tested against DPAP1 (Plasmodium falciparum, UniProt Q8IIJ9) (assay: primary screen, percent inhibition; read by cleavage of a fluorogenic dipeptide substrate; higher = more effect of the substance).
DPAP1, sequence (Q8IIJ9 whole entry, looked up): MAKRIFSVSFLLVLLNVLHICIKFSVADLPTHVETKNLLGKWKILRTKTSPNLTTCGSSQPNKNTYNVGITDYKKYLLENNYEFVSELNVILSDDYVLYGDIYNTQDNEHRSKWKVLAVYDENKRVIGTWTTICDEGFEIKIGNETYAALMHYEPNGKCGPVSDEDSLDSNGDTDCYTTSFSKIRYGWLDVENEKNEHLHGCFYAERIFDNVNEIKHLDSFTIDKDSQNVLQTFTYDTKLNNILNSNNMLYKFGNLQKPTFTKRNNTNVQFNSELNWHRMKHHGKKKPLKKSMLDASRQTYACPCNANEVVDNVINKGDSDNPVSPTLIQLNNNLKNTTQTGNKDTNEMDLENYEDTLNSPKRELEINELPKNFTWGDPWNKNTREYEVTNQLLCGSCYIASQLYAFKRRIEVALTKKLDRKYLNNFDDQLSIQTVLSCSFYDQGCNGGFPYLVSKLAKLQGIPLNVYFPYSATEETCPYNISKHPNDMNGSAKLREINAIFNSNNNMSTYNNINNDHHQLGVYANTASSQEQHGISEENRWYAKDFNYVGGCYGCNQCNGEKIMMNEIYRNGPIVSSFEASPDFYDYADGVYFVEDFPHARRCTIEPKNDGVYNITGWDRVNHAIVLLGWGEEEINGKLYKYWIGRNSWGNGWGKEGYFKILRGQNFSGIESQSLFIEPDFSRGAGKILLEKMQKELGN
Design: species or system P. falciparum D10 trophozoite lysates; single well
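Also: 30 min substrate incubation versus DMSO and 10 µM JCP410 controls.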

Row | SMILES | % Inhibition @ 10 uM [%]
1 | CCCOc1ccc(C2CC(=O)NC3=C2C(=O)CC(c2ccc(OC)c(OC)c2)C3)cc1 (stereo not shown) | 3.11
2 | COc1nc(-c2ccccc2)ccc1-c1noc(-c2cccs2)n1 | -5
3 | Cc1ccc(S(=O)(=O)N2CCN(C(=O)c3ccccc3F)CC2)cc1 | -5.2
4 | COc1ccc(CCNC(=O)CSc2nnc(-c3ccncc3)o2)cc1OC | 2.95
5 | Cc1nn(C(=O)C23CC4CC(CC(C4)C2)C3)c(C)c1Sc1ccccc1 | 2.76
6 | Cc1ccnc(NC(=O)COc2ccccc2C)c1 | 0.843
7 | Cn1nc(/C=C\c2ccccc2)nc2c(=O)n(C)c(=O)nc1-2 | -4.64
8 | Cc1ccc(CCNC(=O)c2cc(-c3ccc(Br)cc3)[nH]n2)cc1 | 2.45
9 | CCN(CCN(C)C)Cc1ccccc1Cl | -2.34
10 | Cc1cccc(OCCCn2ccnc2)c1 | -4.08
11 | CC(C)Cc1nnc(NC(=O)c2nc(S(C)(=O)=O)ncc2Cl)s1 | -6.5
12 | COC(=O)c1ccc(CN2C[C@@H]3C[C@H](C2)c2cccc(=O)n2C3)cc1 | -1.85
13 | Cc1ccc2nc3c(O)n(CC(=O)NCCCOC(C)C)ncc-3c2c1 | 1.92
14 | Cc1cc(=O)oc2c1c(C)nn2-c1cccc(Br)c1 | -1.25
15 | O=C(Nc1ccc2ccccc2c1)c1cccnc1Cl | 6.77
16 | CC(=O)N(Cc1ccccc1)C1CCCc2c1[nH]c1ccc(C)cc21 (stereo not shown) | 9
17 | CC1CC(C)(C)NC(=S)N1CC(=O)N1CCN(Cc2ccc3c(c2)OCO3)CC1 (stereo not shown) | 2.73
18 | CCc1c(C)sc(NC(=O)COc2ccc(Cl)cc2Cl)c1C(N)=O | -1.22
19 | COC(=O)c1cc2c(=O)n3cc(C)ccc3nc2n(Cc2cccnc2)c1=N | -3.27
20 | Cc1cc(C)c2c(=O)n(CC(=O)NCc3ccccc3Cl)sc2n1 | 83.7
21 | CCCC(=O)Nc1ccc2nc(SCC(=O)N3CCN(c4ccccc4)CC3)sc2c1 | -0.99
22 | CCNc1nc(SCCOc2ccc(Cl)cc2Cl)nc(N(C)C)n1 | -3.96
23 | N#CC1=C(N)OC2=C(C(=O)CCC2)C1C1CCCCC1 (stereo not shown) | -6.7
24 | O=C(O)Cn1nnc2sc3c(c2c1=O)CCCC3 | -1.18
25 | CC(=O)c1c(NCc2ccccc2)nc(=O)n(-c2ccccc2)c1C | 0.937
26 | N#CC1=C(SCc2ccccc2)NC(=O)C(C#N)C12CCCCC2 (stereo not shown) | -0.597

Row | SMILES | % Inhibition @ 10 uM [%]
27 | COc1ccc(C2=NC3(CCN(C(=O)NC4CCCCC4)CC3)N=C2SC)cc1 | -4.13
28 | CC(Cc1ccccc1F)N1CCN(c2ccc(F)cc2)CC1 (stereo not shown) | -5.31
29 | Cc1cccc(N2C(=O)NC(=O)/C(=C/Nc3ccc4[nH]c(C)nc4c3)C2=O)c1 | 1.01
30 | CCc1ccc(C(=O)/C=C/c2ccc(F)cc2)cc1 | -6.2
31 | Cc1c(C(=O)NCC(C)C)sc2nc(-c3ccc(F)cc3)cn12 | -5.58
32 | COc1cccc(OC)c1C(=O)N(Cc1nc(-c2cccc(C)c2)no1)C(C)C | -6.23
33 | CN(CC(=O)Nc1sc2c(c1C#N)CCCC2)S(=O)(=O)c1ccccc1 | 4.01
34 | Cn1c(=O)n(C)c2cc(/C=C3/SC(=O)N(CC(=O)Nc4ccc(Cl)cc4)C3=O)ccc21 | 15.2
35 | Cc1cccc(C(=O)Nc2ccc(C)c(C)c2)c1 | 0.827
36 | CC(=O)c1cccc(Nc2cc(C)nc3ccc(C)cc23)c1 | -14.4
37 | CCC(CC)C(=O)Nc1ccccc1C(N)=O | -6.4
38 | O=C(NC1CCCc2ccccc21)c1ccc2nc(N3CCOCC3)sc2c1 (stereo not shown) | -2.37
39 | CCn1c(C(C)NC(=O)Cc2ccccc2)nc2ccccc21 (stereo not shown) | 6.01
40 | CCNC(=O)OC(CC)C12CC3CC(CC(C3)C1)C2 (stereo not shown) | -0.712
41 | CCC1C(=O)NC(=O)N(c2ccccc2)C1=O (stereo not shown) | -7.11
42 | CC(C)Oc1ccc(C(=O)C2=C(O)C(=O)N(Cc3cccnc3)C2c2ccc(O)cc2)cc1 (stereo not shown) | 3.81
43 | Cn1cccc1/C=C1\CN(Cc2ccccc2)C/C(=C\c2cccn2C)C1=O | -5.51
44 | O=Cc1ccccc1OCCOc1ccccc1C=O | 16.9
45 | O=CN1CCN(C2CC3CCC2C3)CC1 (stereo not shown) | 4.55
46 | O=C(CCc1ccccc1)NC1(C(F)(F)F)N=C(c2ccccc2)NC1=O (stereo not shown) | -4.91
47 | CCOc1ccccc1NC(=O)c1ccc(N(C)C)cc1 | -2.17
48 | C#CC(C)(C)N1CCC(O)(c2ccccc2)C(C)C1 (stereo not shown) | 4.66
49 | O/N=C1/C2CCC1C(N1CCCCC1)CC2 (stereo not shown) | 4.89
50 | Cc1cc(C)c(C#N)c(Nc2cccc3ccccc23)n1 | -6.68
51 | O=C(NC1CCCCCCC1)C1CCN(c2c(N3CCCC3)c(=O)c2=O)CC1 | 3.3
52 | CCOC(=O)C1=C(C)NC(=O)CC1c1cccc(Oc2ccccc2)c1 (stereo not shown) | 7.62

Row | SMILES | % Inhibition @ 10 uM [%]
53 | CC(=O)NC1C(OCc2ccccc2)OC(CO)C(O)C1O (stereo not shown) | -3.58
54 | Cc1cc(C)n2nc(NC(=O)C3CCCCC3)nc2n1 | 0.401
55 | CCOC(=O)c1cnc2c(ccc3ccccc32)c1Cl | 9.39
56 | CCc1ccc(OCC(=O)Nc2ccc(OC)c3ccccc23)cc1 | -2.62
57 | O=C(NCCc1ccc(S(=O)(=O)N2CCCC2)cc1)c1cccs1 | 0.503
58 | Cc1ccc(/C(O)=C/c2nc3ccccc3nc2O)o1 | 0.919
59 | Clc1ccc(OCCn2cnc3ccccc32)cc1 | -1.99
60 | CCCC(=O)Nc1ccc2nc(SCC(=O)Nc3nccs3)sc2c1 | 2.38
61 | Cc1ccnc2c(NCN3C(=O)C4C5C=CC(C5)C4C3=O)cccc12 (stereo not shown) | 2.36
62 | Cc1n[nH]c2c1C1(CC(C)N(C)C[C@H]1C)C(C#N)=C(N)O2 (stereo partly shown) | -1.42
63 | CC(O)CN(CCC(C)c1ccccc1)CC(C)O (stereo not shown) | -1.5
64 | Cc1nc2[nH]c(-c3cccs3)nc2cc1Br | 2.58
65 | CC1CCN(S(=O)(=O)c2ccc3c(ccn3CC(=O)NCCC3=CCCCC3)c2)CC1 | 0.359
66 | Cc1ccc(OC(C)C(=O)Nc2ccccc2O)cc1 (stereo not shown) | -2.76
67 | Cc1ccc2nc(NCc3cccnc3)c(/C=N\Cc3cccnc3)c(=O)n2c1 | -4.93
68 | Cc1sc(-c2ccncc2)nc1-c1c[nH]c2ccccc12 | -0.185
69 | CCc1c(C#N)c(N)nc(SCC(=O)c2ccc(-c3ccccc3)cc2)c1C#N | 2.55
70 | CCOc1ccc(C2=CC(=O)C(C(C)=O)CC2)cc1 (stereo not shown) | 3.1
71 | c1ccc(-c2cc(-c3cc(-c4ccccc4)on3)no2)cc1 | -2.42
72 | CCOc1ccccc1/C=C1\C(=O)C2CCN1CC2 | 2.44
73 | O=C1C(c2ccncc2)=C(O)c2ccccc21 | 0.00178
74 | CC(NC(=O)CNC(=S)N(Cc1cccs1)C1CCCC1)c1ccccc1 (stereo not shown) | -7.73
75 | Clc1ccc2[nH]c3ccccc3c2c1 | -2.41
76 | Cc1ccc(Cl)cc1-n1nnnc1C(c1ccccc1)N(C)C (stereo not shown) | -2.81
77 | Oc1ncnc2nc(-c3ccccc3)c(-c3ccccc3)nc12 | 0.944
78 | Cc1ccccc1CSCC(=O)NC1CC2CCC1C2 (stereo not shown) | -0.968

Row | SMILES | % Inhibition @ 10 uM [%]
79 | CC1C(=O)C(C)C(c2ccccc2O)NC1c1ccccc1O (stereo not shown) | 0.587
80 | CC(C)COC(=O)C1=CN=C2SCCC(=O)N2C1c1ccccc1Cl (stereo not shown) | -1.17
81 | Cc1ccc2cc3cc(C(=O)N4CCC(C)CC4)oc3nc2c1 | -1.54
82 | CCOc1ccc(CN(C(=O)c2cc(=O)c3ccc(C)cc3o2)C2CCS(=O)(=O)C2)cc1 (stereo not shown) | -3.24
83 | COc1ccc(N(CC(=O)N2CCN(c3ccccc3)CC2)S(=O)(=O)c2ccccc2)c(OC)c1 | 2.92
84 | COc1ccc(N(CC(=O)Nc2ccc(Cl)cc2)S(=O)(=O)c2ccc(NC(C)=O)cc2)cc1 | 8.64
85 | CCCCN(C)CCNC(=O)c1cc2c(O)nc3ccccc3c2n1C | -3.23
86 | CC1CCN(S(=O)(=O)c2ccc(NC(=O)c3cccc(F)c3)cc2)CC1 | -3.21
87 | CCCCNS(=O)(=O)c1ccc2nc(-c3cccnc3)cc(C(=O)NC(C)CC)c2c1 (stereo not shown) | -3.21
88 | CC(Oc1ccc(Cl)cc1Cl)C(=O)Nc1ccc(S(=O)(=O)N2CCCCC2)cc1 (stereo not shown) | -0.95
89 | Cc1cc(C)c2oc(C(=O)NCc3ccncc3)cc(=O)c2c1 | -5.08
90 | Cc1cc(/C=C2\NC(=O)N(Cc3ccc(Cl)cc3)C2=O)c(C)n1-c1ccc(C#N)cc1 | 2.17
91 | Cc1ccccc1-c1nc(SCC(=O)N2CCCC2)n2[nH]c(=O)cc2n1 | 5.78
92 | COc1ccc(S(=O)(=O)Nc2cccc(C)c2C)cc1 | 2.22
93 | NC(=O)c1c(NC(=O)c2ccccc2F)sc2c1CCCC2 | 2.32
94 | COc1cc(CN(C(=S)NCC(=O)NC2CCCC2)C2CCCC2)cc(OC)c1OC | 1.27
95 | CCN1CCCC(Nc2ccnc3cc4ccccc4cc23)C1 (stereo not shown) | 1.7
96 | Cc1cc(C)c(NC(=O)CN2C(=O)c3ccccc3S2(=O)=O)c(C)c1 | 9.94
97 | O=C(CC(c1ccc(F)cc1)c1ccco1)N1CCOCC1 (stereo not shown) | -10.8
98 | O=C(NCc1ccc(-n2cccc2)cc1)c1cccc(F)c1 | 1.32
99 | c1ccc(-c2csc(-c3nc(-c4ccccc4)cs3)n2)cc1 | 1.9
100 | COc1cc(C(=O)Nc2ccc(NC(=O)c3cccc(C)c3)cc2)cc(OC)c1OC | -1.57
101 | CCOC(=O)c1c(C)nc(C)c(C(=O)OCC)c1-c1ccc(OC)cc1 | -1.96
102 | CC(NC(=O)c1cc2c(s1)CS(=O)(=O)C2)c1ccccc1 (stereo not shown) | -12.1
103 | CN(C)c1ccc([C@H](N[C@@H](CC2CCCCC2)C(=O)NC2(C#N)CC2)C(F)(F)F)cc1 | 1.61
